In the supplement of paper PMC10441789:
This is one part of the list. Antibody binding of pooled human sera (four to six donors per pool; dilution not stated) to peptides of the Trypanosoma cruzi antigen TSSA on microarrays. Quantile-normalised fluorescence in arbitrary units, mean of duplicate arrays; higher = more binding. No active / inactive call. The uninfected pools are read here as the healthy donors of the same country. The strongest signals lie near the top of the scale (about 60,000).

Tests used:
Test in all cases: antibody binding signal (normalised fluorescence) (arbitrary fluorescence units); higher = stronger serum antibody binding to peptide
[1] = tested on: pooled sera of chronic Chagas disease patients, Argentina
Method: (§1)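 Microarray of 15-residue peptides over residues 30-55 of Trypanosoma cruzi TSSAII, each with 1 to 10 substitutions at naturally variable positions, probed with one serum pool per country.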

[2] = tested on: pooled sera of chronic Chagas disease patients, Bolivia
Method: as §1

[3] = tested on: pooled sera of chronic Chagas disease patients, Brazil
Method: as §1

[4] = tested on: pooled sera of chronic Chagas disease patients, Colombia
Method: as §1

[5] = tested on: pooled sera of chronic Chagas disease patients, Mexico
Method: as §1

[6] = tested on: pooled sera of chronic Chagas disease patients, USA
Method: as §1

[7] = tested on: pooled sera of uninfected people, Argentina
Method: as §1

[8] = tested on: pooled sera of uninfected people, Bolivia
Method: as §1

[9] = tested on: pooled sera of uninfected people, Brazil
Method: as §1

[10] = tested on: pooled sera of uninfected people, Colombia
Method: as §1

[11] = tested on: pooled sera of uninfected people, Mexico
Method: as §1

[12] = tested on: pooled sera of uninfected people, USA
Method: as §1

Sequence	antibody binding signal [1]	antibody binding signal [2]	antibody binding signal [3]	antibody binding signal [4]	antibody binding signal [5]	antibody binding signal [6]	antibody binding signal [7]	antibody binding signal [8]	antibody binding signal [9]	antibody binding signal [10]	antibody binding signal [11]	antibody binding signal [12]
GKDNKAATGETPSQP	6180	1230	37700	4220	4460	12300	216	354	169	370	111	124
KENKPAAGEAPSQPG	8780	11400	45100	406	550	15800	199	331	171	130	152	118
TPPSGKENKAATGET	24400	9780	3160	498	2750	4780	1720	1460	227	899	211	292
TDNKPATGGAPSPSG	2380	19900	6400	391	367	2820	241	1050	435	207	412	171
KKPAAGGAPSQPGAS	162	190	1590	1420	195	179	253	242	107	85	79.2	239
PSGKENKPATGETPS	36900	20200	32800	3270	4810	29400	7800	4470	437	801	2010	324
GKDKKTATGGTPSQP	518	270	252	2010	858	1770	253	75.5	109	119	348	84.5
KDKKPAAGEAPSQPG	2510	8910	33400	153	172	11500	102	223	97.8	86.7	69.1	95.9
GTENKAAAGGTPSPS	38100	399	525	3490	697	1380	133	370	1530	557	193	141
KTATGGAPSQPGASS	564	345	791	310	471	228	578	122	150	88.3	193	150
KTATGETPSPSGASS	328	399	1100	189	2670	5240	221	223	183	123	132	544
TENKAAAGEAPSPSG	34900	1200	16900	228	199	11500	141	128	130	68	81.3	150
GTENKAATGEAPSQS	33500	41400	38900	4590	5120	29600	237	366	147	169	99.5	83.3
GKENKTAAGGAPSQS	4250	518	8070	9710	7480	12900	358	114	126	129	134	147
PPSGTDKKAAAGGTP	7080	1070	20300	9250	29400	2410	257	204	897	462	1270	248
KENKPATGEAPSQSG	47600	32200	48600	323	881	44600	1110	796	275	204	274	170
TDNKPAAGGAPSQSG	982	979	4360	1180	292	518	149	306	316	238	410	131
SGTDNKAATGGTPSP	666	1010	43600	937	506	228	216	711	1380	436	167	226
SSTPPSGKEKKPATG	21300	233	481	260	39100	466	552	727	106	277	127	208
NKTAAGEAPSQPGAS	6540	34500	42700	359	545	6540	510	1200	901	508	286	1010
